We go through 102 molecules from PubChem BioAssay AID1434 (Sanford-Burnham Center for Chemical Genomics, 2008).

Some of the results follow. These are further read-outs of the screen, such as a control signal, another cell line or another target. No call is given for them. Most of these compounds were active or inconclusive in the main read-out, so they are no random draw.

In the experiment the target is Runt-related transcription factor 1 (Homo sapiens) + Core-binding factor subunit beta (Homo sapiens) (UniProt Q01196+Q13951). Nature of the experiment: inhibitors of RUNX1 Runt–CBFb-SMMHC binding, primary screen, biochemical, FRET, Cerulean-Runt, Venus-CBFb-SMMHC, uHTS (AID 1434).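 Further: 0% = DMSO wells and 100% = wells with excess untagged CBFb-SMMHC; inhibitors lower the FRET ratio by blocking Runt binding to CBFb-SMMHC.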 As to conditions: Cerulean-Runt/Venus-CBFb-SMMHC FRET ratio 530/480, 1 h; retest duplicate average; at 20 µM; stronger effect = higher value.
Sequence of UniProt Q01196 (Q01196 whole entry, looked up): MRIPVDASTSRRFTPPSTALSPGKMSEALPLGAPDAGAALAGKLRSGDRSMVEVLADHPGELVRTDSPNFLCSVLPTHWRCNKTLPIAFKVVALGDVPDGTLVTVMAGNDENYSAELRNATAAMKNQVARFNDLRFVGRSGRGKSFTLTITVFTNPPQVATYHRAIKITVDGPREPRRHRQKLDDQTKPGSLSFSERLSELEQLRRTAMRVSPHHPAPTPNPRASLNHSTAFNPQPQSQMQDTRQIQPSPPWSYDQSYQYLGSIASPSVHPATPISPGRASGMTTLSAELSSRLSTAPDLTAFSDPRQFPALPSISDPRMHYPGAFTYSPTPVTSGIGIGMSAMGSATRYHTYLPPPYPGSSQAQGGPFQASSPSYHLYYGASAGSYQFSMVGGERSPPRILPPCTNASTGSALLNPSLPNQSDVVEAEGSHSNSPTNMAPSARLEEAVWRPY
Sequence of UniProt Q01196 (Q13951 whole entry, looked up): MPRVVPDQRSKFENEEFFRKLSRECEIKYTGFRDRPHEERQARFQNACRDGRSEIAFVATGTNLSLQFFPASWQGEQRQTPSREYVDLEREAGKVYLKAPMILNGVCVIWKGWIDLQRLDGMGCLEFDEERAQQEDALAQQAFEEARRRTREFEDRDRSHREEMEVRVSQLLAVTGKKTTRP
As to `Cn1c(=O)c(C=Nc2ccccc2)c(O)c2ccccc21`, the inhibition is -16.1%.

`Oc1ccc(N=Cc2ccc(-c3cccs3)s2)cc1`: the inhibition was determined as 120%.

For the molecule `COc1ccc(C(=O)/C=C2\Sc3ccccc3N2C)cc1`, the inhibition was 88.5%.

In the case of `Cc1ccc2sc(NC(=O)CSc3nc(C)cc(C)c3C#N)nc2c1`, the inhibition was found to be 74.8%.

For `CCCCCCc1cc2cc(-c3nnc(-c4cc(OC)c(OC)c(OC)c4)o3)c(=O)oc2cc1O`, the inhibition was determined as 100%.

Take `Cc1c2c(n3c(nc4ccccc43)c1C#N)N(CCCN(C)C)CC2`: the inhibition turned out to be 70.6%.

As for `Cc1cccn2c(=O)c3cc(C(=O)NC4CCCC4)c(=N)n(C4CCCC4)c3nc12`, the inhibition came out at 71.5%.

On to `CC(C)N1CCc2c(sc(NC(=O)CN3C(=O)c4ccccc4C3=O)c2C(N)=O)C1`, for which the inhibition came to 152%.

For the molecule `Cc1cccn2c(=O)c3cc(S(=O)(=O)c4ccccc4)c(=N)n(CC4CCCO4)c3nc12` (configuration not stated), the inhibition stood at 70.6%.

For the molecule `CCOC(=O)c1cc2c(ccc3ccccc32)oc1=O`, the inhibition was found to be 70.6%.

On to `CC(=O)Nc1ccc(N2CCc3c(C)c(C#N)c4nc5ccccc5n4c32)cc1`, for which the inhibition worked out at 71.5%.

For `CC(=O)c1c(N2CCN(c3ccccn3)CC2)nc(=S)n(-c2ccccc2)c1C`, the inhibition was 156%.

With `Cc1cccn2c(=O)c(/C=C(\C#N)C(=O)NCc3ccccc3)c(N3CCC(C(N)=O)CC3)nc12`, the inhibition stood at 87.9%.

For `Cc1c2c(n3c(nc4ccccc43)c1C#N)N(c1ccccc1)CC2`, the inhibition came to 71.5%.

As to `COc1cc(OC)c(C2CC(=O)N3CN(c4ccc(C)cc4)CSC3=C2C#N)cc1OC` (configuration not stated), the inhibition was found to be 170%.

Turning to `Cc1cccn2c(=O)c3cc(C#N)c(=N)n(Cc4ccncc4)c3nc12`, the inhibition came to 171%.

As to `CCOC(=O)c1c(N)n(CCOC(=O)c2cccs2)c2nc3ccccc3nc12`, the inhibition stood at 118%.

For the molecule `CCN1CCc2c(sc(NC(=O)CN3C(=O)c4ccccc4C3=O)c2C(N)=O)C1`, the inhibition was 122%.

Consider `Nc1cccc2c1C(=O)N(C(=O)c1cccc(S(=O)(=O)N3CCCC3)c1)C2=O`, for which the inhibition turned out to be 72.9%.

Regarding `Cc1cc(C)c2c(N)c(C(=O)c3cccc(Cl)c3)sc2n1`, the inhibition was found to be 59.7%.

As to `C=CCn1c(=N)c(C(=O)NCCCOC)cc2c(=O)n3cc(C)ccc3nc21`, the inhibition was determined as 72.9%.

With `N#C/C(=C/c1ccc(-c2cc(C(=O)O)cc(C(=O)O)c2)o1)c1nc2ccccc2s1`, the inhibition worked out at 68.1%.

For the molecule `COc1ccc(CCn2c(N)c(C(=O)NCc3ccco3)c3nc4ccccc4nc32)cc1`, the inhibition was 141%.

Take `COc1c(O)ccc(/C=C(\C#N)c2nc3ccccc3[nH]2)c1[N+](=O)[O-]`: the inhibition worked out at 95.5%.

As for `CCOC(=O)c1cc2c(=O)n3ccccc3nc2n(C(C)C)c1=NC(=O)c1c(-c2ccccc2Cl)noc1C`, the inhibition is 71.5%.

Turning to `CCOC(=O)c1cc2c(=O)n3ccccc3nc2n(CCOC)c1=NC(=O)c1ccncc1`, the inhibition stood at 97.6%.

Take `Cc1cc(C)c2c(n1)nn1c(NCCOCCO)cc(C)nc21`: the inhibition came to 72%.

Consider `COC(=O)C1=CN(CC2CCCO2)C=C(C(=O)OC)C1c1ccccc1C(F)(F)F` (configuration not stated), for which the inhibition was 97.6%.

On to `Cc1[nH]n(-c2ccccc2)c(=S)c1C=Nc1ccc([N+](=O)[O-])cc1`, for which the inhibition worked out at 54%.

Consider `CCN(CC)c1ccc2cc(-c3nnc(-c4ccccc4)o3)c(=O)oc2c1`, for which the inhibition stood at 71.5%.

On to `CCOCCCn1c(=NC(=O)c2ccc(OC)c(OC)c2)c(C#N)cc2c(=O)n3cccc(C)c3nc21`, for which the inhibition was 166%.

Turning to `CCOC(=O)CC(=O)CSc1nc2c(cc1C#N)CCCCCC2`, the inhibition came out at 56.8%.

In the case of `COC(=O)C1=C(C)NC2=C(C(=O)CC(C)(C)C2)C1c1cccc(C)n1` (configuration not stated), the inhibition worked out at 83.5%.

For the molecule `CCN(CC)c1ccc2cc(C(N)=O)c(=N)oc2c1`, the inhibition worked out at 70.6%.

`CCn1c(=N)c(S(=O)(=O)c2ccccc2)cc2c(=O)n3ccccc3nc21`: the inhibition is 70.6%.

Take `CCc1cc2c(CN3CCN(CC)CC3)cc(=O)oc2cc1O`: the inhibition was determined as 72.9%.

Consider `Cc1cc(=O)oc2cc(NS(=O)(=O)c3ccc(F)cc3)ccc12`, for which the inhibition is 72.9%.

For `COCCCNc1nc2nonc2nc1N1CCN(Cc2cccc(C)c2)CC1`, the inhibition amounted to 98.3%.

`O=C1NC(=S)S/C1=C1\Sc2ccccc2N1CCCS(=O)(=O)O`: the inhibition came out at 129%.

Regarding `C=CCOc1c(Br)cc(C2C3=C(CCCC3=O)N(C)C3=C2C(=O)CCC3)cc1OCC`, the inhibition was 71.5%.

As to `CCN1CC=C2C(C1)C(c1ccc(Cl)s1)C(C#N)=C(N)C2(C#N)C#N` (configuration not stated), the inhibition stood at 86.8%.

Take `CN1CCc2c(sc3c2C(=O)NC(c2ccccn2)N3)C1` (configuration not stated): the inhibition was determined as 72.9%.

With `CCCCCn1c(NC(=O)c2ccco2)c(S(=O)(=O)c2ccc(C)cc2)c2nc3ccccc3nc21`, the inhibition worked out at 155%.

In the case of `CCc1cc(=O)oc2c(C)c(O)c(CN3CCCCC3)cc12`, the inhibition turned out to be 124%.

In the case of `CC1=NOC(=O)/C1=C\c1ccc(-c2cccc(Cl)c2)o1`, the inhibition came to 57.9%.

For `COCCOC(=O)c1c(N)n(CCCN2CCOCC2)c2nc3ccccc3nc12`, the inhibition was determined as 100%.

Consider `CC1=C(C(=O)OCC2CCCO2)C(c2ccncc2)C2=C(CC(C)(C)CC2=O)N1` (configuration not stated), for which the inhibition worked out at 99.4%.

With `Cc1cccc(NC(=O)CN2C(=O)N/C(=C\c3ccc(-c4cccc(C(=O)O)c4)o3)C2=O)c1`, the inhibition was 116%.

Turning to `Nc1nc2nc(-c3ccc(OCc4ccccc4)cc3)cc(C(F)(F)F)n2n1`, the inhibition worked out at 108%.

`COc1ccc(S(=O)(=O)N(C(=O)C(C)C)c2ccc3oc(=O)sc3c2)cc1`: the inhibition worked out at 52.9%.

Take `Cc1cc(C)c2c(n1)nn1c(NCCCN(C)C)cc(C)nc21`: the inhibition stood at 64%.

Regarding `Cc1ccc(C2C3=C(CC(C)(C)CC3=O)Nc3[nH]c(=S)[nH]c(=O)c32)cc1` (configuration not stated), the inhibition turned out to be 60.4%.

Take `CCN1C(=C(C#N)C#N)C=Cc2cc(C)ccc21`: the inhibition is 70.6%.

In the case of `CC1CCc2c(sc(Nc3nc4c(F)cccc4s3)c2C(N)=O)C1` (configuration not stated), the inhibition was found to be 166%.

Take `COc1ccc2cc(-c3nc4ccccc4n3C)c(=O)oc2c1`: the inhibition was 130%.

`CS(=O)(=O)c1nsc2nc(=O)c(/C=C3\C=Nc4ccccc43)c(N)n12`: the inhibition was found to be 80.2%.

`Nc1ccccc1-c1nc2ccccc2s1`: the inhibition came out at 100%.

As for `COc1ccc2nc3c(cc2c1)c(NC(=O)C1CCCO1)nn3CC(C)C` (configuration not stated), the inhibition stood at 72.9%.

As to `CN1CC=C2C(C#N)=C(N)C(C#N)(C#N)C(c3ccsc3)C2C1` (configuration not stated), the inhibition is 72.9%.

As for `O=C(N/N=C/c1c(O)n(Cc2ccccc2)c(=O)c2ccccc12)c1cccnc1`, the inhibition was found to be 70.6%.

`O=C(O)c1cccc(S(=O)(=O)Nc2ccc3oc(=O)sc3c2)c1`: the inhibition turned out to be 55.1%.

Turning to `COc1ccc(-n2c(N)c(C(=O)NCc3ccco3)c3nc4ccccc4nc32)c(OC)c1`, the inhibition came out at 106%.

In the case of `CCCCn1c(=O)nc2n(-c3ccc(C)cc3)c3ccccc3cc-2c1=O`, the inhibition turned out to be 71.5%.

As to `CCc1cc2c(=O)nc3n(c2s1)Cc1ccccc1/C3=C(/O)c1ccccc1Cl`, the inhibition is 72.9%.

Turning to `COCCN(CCOC)c1cc(C)c(C#N)c2nc3ccccc3n12`, the inhibition stood at 71.5%.

For `COCCn1c(N)c(C#N)c2nc3ccccc3nc21`, the inhibition was found to be 72.9%.

As to `Cc1cc(=O)oc2c(CN3CCN(C)CC3)c(O)c(Cl)cc12`, the inhibition amounted to 148%.

As for `CCN(CC)c1ccc2cc(S(=O)(=O)c3ccc(Cl)cc3)c(=O)oc2c1`, the inhibition came out at 71.5%.

For `Cc1ccc(C)c(S(=O)(=O)c2c(N)n(/N=C/c3ccco3)c3nc4ccccc4nc23)c1`, the inhibition is 61.7%.

`Cc1cccc(N2CCN(C(=O)Cn3sc4nc(C)cc(C)c4c3=O)CC2C)c1` (configuration not stated): the inhibition came out at 55.5%.

For `COC(=O)C1=CNC=C(C(=O)OC)C1c1ccc(Cl)cc1`, the inhibition turned out to be 95.2%.

As to `Cc1ccc(S(=O)(=O)Oc2ccc(C3C4=C(CCCC4=O)N(CCC(=O)O)C4=C3C(=O)CCC4)cc2Cl)cc1`, the inhibition stood at 71.5%.

For the molecule `O=C(Nc1cccc(C(F)(F)F)c1)c1cc2c(s1)-c1ccccc1OC2`, the inhibition amounted to 89.1%.

On to `O=C(Nc1ccc2nc(-c3cccs3)c(-c3cccs3)nc2c1)N1CCOCC1`, for which the inhibition was 71.5%.

On to `Cc1c(-c2cccc(Cl)c2)nc2ccccc2c1C(=O)OC/C(O)=C(\C#N)c1nc2ccccc2[nH]1`, for which the inhibition was 67%.

For `CCOC(=O)c1cc2c(=O)n3cccc(C)c3nc2n(CCOC)c1=NC(C)=O`, the inhibition amounted to 174%.

In the case of `CC[C@H](C)/C=C(C)/C=C/C1=CC2=CC(=O)[C@]3(C)OC(=O)[C@@H](C(C)=O)[C@@H]3C2=CO1`, the inhibition was 70.6%.

Turning to `COc1ccc2c(c1)O/C(=C\c1ccco1)C2=O`, the inhibition came to 59.3%.

`N#Cc1c(-c2ccc(F)cc2)c2c([nH]c1=O)-c1ccccc1OC2`: the inhibition is 70.6%.

Regarding `c1ccc(-c2onc3cc4c(cc23)OCCO4)cc1`, the inhibition came out at 131%.

As to `O=C(O)c1ccc(-c2ccc(/C=C3\NC(=O)N(Cc4ccc(Cl)cc4)C3=O)o2)cc1`, the inhibition was 108%.

Turning to `COCCOC(=O)C1=C(C)NC2=C(C(=O)CC(C)(C)C2)C1c1cccnc1` (configuration not stated), the inhibition was 111%.

Regarding `Cc1cc(-n2c(C)cc(C(=O)CSc3ncnc4ccccc34)c2C)no1`, the inhibition worked out at 101%.

`CC(=O)Oc1ccc2cc(-c3ccccc3)c(=O)oc2c1`: the inhibition was found to be 70.6%.

In the case of `Cc1cc(NS(=O)(=O)c2ccc(NC(=O)c3cc4c(=O)n5ccccc5nc4s3)cc2)nc(C)n1`, the inhibition was found to be 75.7%.

As to `COCc1cc(=O)n2c([nH]c3ccccc32)c1C#N`, the inhibition worked out at 57.5%.

For `O=C(Nc1sc2c(c1C(=O)NCc1ccco1)CCCC2)c1ccc2c(c1)OCO2`, the inhibition was found to be 80.5%.

As to `COc1ccc2nc(NCCNC(=S)NCCCN3CCOCC3)c(C#N)cc2c1`, the inhibition stood at 70.6%.

With `Clc1ccc2nc(N3CCNCC3)nc(-c3ccccc3)c2c1`, the inhibition turned out to be 72.9%.

Consider `Cc1ccc(CN2C(=O)N/C(=C/c3ccc(-c4ccc(C(=O)O)cc4)o3)C2=O)cc1`, for which the inhibition was 118%.

Consider `COc1ccc(CCn2c(=N)c(C(=O)N3CCN(C)CC3)cc3c(=O)n4ccccc4nc32)cc1`, for which the inhibition worked out at 135%.

On to `Cc1c(Cc2ccccc2)c(=O)oc2c(CN(C)C)c(O)c(Cl)cc12`, for which the inhibition came out at 157%.

Regarding `O=C(CSc1ncnc2ccccc12)c1cccs1`, the inhibition was found to be 103%.

Turning to `Cc1ccc2nc3c(cc(C#N)c(=O)n3CCN3CCOCC3)c(=O)n2c1`, the inhibition was 157%.

Turning to `COCCCNC(=S)NCCCNc1nc2cc(C)cc(C)c2cc1C#N`, the inhibition amounted to 83.6%.

Regarding `CC(=O)Nc1cccc(N/C=C(\C=O)c2nc3ccccc3o2)c1`, the inhibition was 70.5%.

With `CC(=Nc1cccc(C)c1)c1sc2ccccc2c1O`, the inhibition is 70.8%.

As to `Nc1c2ccccc2nc2ccccc12`, the inhibition came to 70.6%.

`Cc1cc(C)c2c(n1)sc1c(-c3ccccc3)c(C#N)c(N)nc12`: the inhibition turned out to be 100%.

Consider `Cn1c(=N)c(S(=O)(=O)c2ccccc2)cc2c(=O)n3ccccc3nc21`, for which the inhibition turned out to be 71.5%.

Turning to `COCCN1C=C(C(=O)OC)C(c2ccccc2Cl)C(C(=O)OC)=C1`, the inhibition was found to be 70.8%.

On to `OCCNc1c2ccccc2nc2c(F)c(F)c(F)c(F)c12`, for which the inhibition is 71.5%.
